According to the RNAGym collection of RNA variant scans (doi:10.1093/nar/gkz1192):
The source gives no read counts; variants with many changes may rest on few reads.

B1: CPEB3 Ribozyme (parent)
chain: UAACAGGGGGCCACAGCAGAAGCGUUCACGUCGCAGCCCCUGUCAGAUUCUGGUGAAUCUGCGAAUUCUGCUGUAUAUCUC

Variants of: B1
Experiment: self-cleavage, relative activity (ratio to wild type); higher = more cleavage; in vitro, sequencing
How it was run: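 For each CPEB3 ribozyme variant, relative activity is its cleaved/total read fraction divided by the unmutated ribozyme's. Barcoded error-prone PCR libraries were transcribed by T7 RNA polymerase (5 hours, 37°C) and held in DNase I for 15 min before an EDTA stop, with cleavage occurring throughout. Template-switching reverse transcription and Illumina sequencing were used to read the RNAs. A 5-read minimum applied, and results are the mean of three batches.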
For UAACAGGGGGGCACAGCAGAAGCGUUCACGUCGCAGCCCCUGUCAGAUUCUGGUGAGCCUGCGAAUUCUGCUGUAUAUCUC [C11G A57G U58C], the self-cleavage was 0.06.
With UAACAGGGGGGCACAGCAGAAGCGUCCACGCCGCAGCCCCUGUCAGACUCUGGUGAAUCUGCGUAUUCUGGUGUAUAUCAC [C11G U26C U31C U48C A64U C71G U80A] the self-cleavage was 0.02.
For UAACAGGGGGGCACAGCAGAAGCGUUCACGUCGCAGCCCCUGCCAGAUUCUGGUGGAUCAGCGAAUUCUGCUGUAUAUCUC [C11G U43C A56G U60A], the self-cleavage was 0.26.
With UAACAGGGGGGCACAGCAUAAGCGUACACGUCGCAGCCCCUGUCUGAUUCUGGUGAAUCUGCGAAUUCUGCCGUAUAUCUC [C11G G19U U26A A45U U72C] the self-cleavage was 0.06.
Variant UAACAGGGGGGCACAGCAGAAACGCUCCCGUCGCAGCCCCUGUCAGGUUCUGGUGAAUCUGCGAAUUCUGCUGUAUAUCUC [C11G G22A U25C A28C A47G] has a self-cleavage of 0.08.
In the case of UAACAGGGGGGCACAGCAGAAGCGCUCACGUCGCAGCCCCUGUCAGAUUCUGGUGGAUCUGCGAAUUCUUCUGUAUGUCUC [C11G U25C A56G G70U A77G], the self-cleavage is reported as 0.08.
With UAACAGGGGGGCACAGCAAAAGCGGUCACGUCGCGGCCCCUGUCAGAUUCUGGUAAAUCUGCGAAUUCUGCUGUAUAACUA [C11G G19A U25G A35G G55A U78A C81A] the self-cleavage was 0.06.
Work on UAACAGGGGGGCACAGCAGAAGCGUUCACAUCGCAGCCCCAGUCAGAUUCUGGUGAAUCUGCGAAUUCUGCUGUGUAUCUC [C11G G30A U41A A75G] yielded a self-cleavage of 0.04.
With UAACAGGGGGGCACAGCAGAAGCGUUCACGUCGCAGCCCCUGACAGGUUCUGGUGAAUCUGCGAAUUCUGCUGCAUAUCUC [C11G U43A A47G U74C] the self-cleavage was 0.93.
With UAACAGGGGGGCACAGCAGAAGCGUUCACGUCACAGCCCCUGUCAGAUUCUGGUGAAUCUACGAACUCUGCUGUAUAUCUC [C11G G33A G61A U66C] the self-cleavage was 0.06.
UAACAGGGGGGCACAGCAGAAGCGUUCACGUCGCAGCCCCUGUCAGAUUCUGGUGAGACUGCGAAUUCUGCUGUAUAUCCC [C11G A57G U58A U80C] showed a self-cleavage of 0.22.
UAACAGGGGGGCACAGCAGAAGCGUCCACGUCGCAGCUCCUGUCAGAUUCAGGUGAAUCUGCGAAUUCCGCUGUAUAUCUC [C11G U26C C38U U51A U69C] showed a self-cleavage of 0.03.
In the case of UAACAGGGGGGCACAGCAGAAGCGCUCACGUCGCAGCCCCUGUCGGAUUCUGGCGAAUCUGCGAAUUCUGCUGUAUAACUC [C11G U25C A45G U54C U78A], the self-cleavage is reported as 0.05.
UAACAGGGGGGCACAGCAGAAGCGUUCACGCCGCAGCCCCUGUCAGAUCCUGGUGAAUCUGCGAAUUCUGCAGUAUAUCUC [C11G U31C U49C U72A] gave a self-cleavage of 0.05.
Work on UAACAGGGGGGCACAGCAGAAGCGUUCACGUCGCAGCCCCUGUCAGAUUCUGGUGCAUCUGCGAAUUCUGCUGUAUGUCUC [C11G A56C A77G] yielded a self-cleavage of 0.
Work on UAACAGGGGGGCACAGCAAGAGCGUUCACGUCGCAGCCCCUGUCAGAUUCUGGUGAAUCUGCGAACCCAGCAGUAUAUCUC [C11G G19A A20G U66C U67C U69A U72A] yielded a self-cleavage of 0.05.
UAACAGGGGGGCACAGCAGAAGCGUUUACUUCGCAGCCCCAGUCAGGUUCUGGUGAAUCUGCGAGUUCUGCAGUAUAUCUC [C11G C27U G30U U41A A47G A65G U72A] gave a self-cleavage of 0.03.
Variant UAACAGGGGGGCACAGCAGAAGCGUACACUUCGCAGCCCCUGUCAGAUUCUGGUGAAUCUGCGAAUCCUGCUGUAUAUCUC [C11G U26A G30U U67C] has a self-cleavage of 0.04.
Variant UAACAGGGGGGCACAGCAGAAGCGUCCACGUCGCAGCCCCUGUCAGAAUCAGGUGAAUCUGCGAAUUCUGCUGUAUAUCUC [C11G U26C U48A U51A] has a self-cleavage of 0.22.
In the case of UAACAGGGGGGCACAGCAGAAGCGUCCACGACGCAGCCCCUGUCAGAUUCUGGUGAAUCUGCGAAUUCUGCUGUAUAUCUC [C11G U26C U31A], the self-cleavage is reported as 0.2.
With UAACAGGGGGGCACAGCAGAAGCGUCCUUGCCGCAGCCCCUGUCAGAUUCUGGUGAAUCUGCGGAUUCUGCCGUAUAUCUC [C11G U26C A28U C29U U31C A64G U72C] the self-cleavage was 0.04.
Work on UAACAGGGGGGCACAGCAGAAGCGUUCACGUCGCAGCCCCUGUCAUGCUCCGGUGAGUCUGCGAAUUCUGCUGUAUAUCUC [C11G G46U A47G U48C U51C A57G] yielded a self-cleavage of 0.07.
For UAACAGGGGGGCACAGCAGAAGCAUUCACGUCACAGCCCCUGUCAGAUUCUGCUGAAUCUGCGAAUUCUGCUGUACAUCUC [C11G G24A G33A G53C U76C], the self-cleavage was 0.06.
With UAACAGGGGGGCACAGCAGAAGCGUUCACGUCGCAGCCGCCGUCAGAUUCUGGUGAAUCUGCGAAUUCUGCCGUGUAUCUC [C11G C39G U41C U72C A75G] the self-cleavage was 0.06.
With UAACAGGGGGGCACAGCAGAAGCGUUCACGUCGCAGCCCUUGUCAGAUCCUGGUGAAUCUGCUAAUUCAGCUGUAGAUCUC [C11G C40U U49C G63U U69A U76G] the self-cleavage was 0.03.
In the case of UAACAGGGGGGCACAGCACGAGCGUUCACGUCGCAGCCCCUGUCAGAUUCUGGUGAAUCUGCGAAUUCUGCUGUAAAUCCC [C11G G19C A20G U76A U80C], the self-cleavage is reported as 0.1.
Work on UAACAGGGGGGCACAGCAGAAGCGUUCACGUCACAGCCCCAGUCAGAUUCUGGUGAAUCUGCGAAUUCUGCCGUAUAUCUC [C11G G33A U41A U72C] yielded a self-cleavage of 0.04.
In the case of UAACAGGGGGGCACAGUAGAAGCGUUCACGUCGCAGCCCCUGACAGAUUCUGGUGAAUCUGCGGAUUCUGCAGCAUACCUC [C11G C17U U43A A64G U72A U74C U78C], the self-cleavage is reported as 0.03.
UAACAGGGGGGCACAGCAGAAGCGUUCACGUAGCAGCCCCGGUCGGAUUCUGGUGGAUCUGCGAAUUCUGCUGUAUAUCUC [C11G C32A U41G A45G A56G] gave a self-cleavage of 0.06.
In the case of UAACAGGGGGGCACAGCAGAAGCGUUCACGCCGCAGCCCCUGUCAGAUUCGGGCGAAUCUGCAAACUCUGCUGUAUAUCUC [C11G U31C U51G U54C G63A U66C], the self-cleavage is reported as 0.06.
UAACAGGGGGGCACAGCAGAAGCGUUCACGACGCAGCCCCCGCCAGAUUCUGGUGAAUCUGCGAAUUCCGCUGUAUACCUC [C11G U31A U41C U43C U69C U78C] showed a self-cleavage of 0.05.
Variant UAACAGGGGGGCACAGCAGAAGCGUUCACGUCGCAGCCCCUGACAGACUCUGGUGAAUCUGCGAAUUCUGCUGUAUAUCUC [C11G U43A U48C] has a self-cleavage of 0.6.
UAACAGGGGGGAACAGCUGAAGCGUUCACGUCGCAGCCCCUGUCGGAUUCUGGUGAAUCUGCGAAUCCUGCUGUAUAUCUC [C11G C12A A18U A45G U67C] showed a self-cleavage of 0.06.
For UAACAGGGGGGCACAGCAGAAGCGUUCACGUCGCAGCCCCUGUCAGAUUCUGGUGAUGCUGCGAAUUAUGCUGUAUAUCUC [C11G A57U U58G C68A], the self-cleavage was 0.04.
